{"source": "paper PMC12136788", "binders": {"B1": {"name": "chr12:14497711:14497812:+|CDS|ENSG00000171681|unk|FALSE|unique (ssRNA)", "RNA": "GGGAGUUCUACAGUCCGACGAUCACAGCGUCUGCCCCCAGAAGCUGCCAGCACAUCUCUGCCUCAGAAGCCACACUUGAAGUUAGCACGCGUUCAGAGUCAAAAUGGCAUAGUACUGUCAUGGAGUGUCCUGGAGGUGGAUCGCAACAGAGGAUUGAGCAUCA"}, "B2": {"name": "ENSG00000124766:be:win_1601|3pUTR|ENSG00000124766|bound_else_gene|NA|bound_elsewhere_windowed (ssRNA)", "RNA": "GGGAGUUCUACAGUCCGACGAUCCGUUUUGGACCCGCGCUCCCAUCCCCCACCUUCCCGGGCCGGGGACCCACUCUGCCCAGCCGGAGGGACGCGGAGGAGGAAGAGGGUAGACAGGGGCGACCUGUGAUUGUUGUUAUUGAUCAACAGAGGAUUGAGCAUCA"}, "B3": {"name": "ENSG00000115641:stop:overlap|stop_codon|ENSG00000115641|stop_codon|NA|stop_codon (ssRNA)", "RNA": "GGGAGUUCUACAGUCCGACGAUCCCAUCGGCUGUGACUGCAAGGUACCUGCUGCGGGCCUCUGCGGGUCCCCGGCGCUCCCCUAGGAAACACGGGUUUCUCUGUGGUUUGUGCUGAAGCCCUGAUCCACCACUGAAGUCUGUCCAACAGAGGAUUGAGCAUCA"}, "B4": {"name": "chr1:151249111:151249212:+|3pUTR|ENSG00000143398|unk|total|mutant (ssRNA)", "RNA": "GGGAGUUCUACAGUCCGACGAUCGCAGAUUGUUGAAUUCCUGUUCUAUCCCUUCUCUAUCCCACCCUGCCUUGAUAAUAUGUCCGCCCAUACCCCAAAUAACUGUCUAUAUCCGACACCCCCAGCCAGUUUCUGGCUGCCUGUCAACAGAGGAUUGAGCAUCA"}, "B5": {"name": "chr15:91915990:91916091:+|CDS|ENSG00000176463|msi1|FALSE|unique (ssRNA)", "RNA": "GGGAGUUCUACAGUCCGACGAUCGUCCUGACCACCCUGGAGCGUAGGUUCAACCUGCAGAGCGCUGACGUGGGUGUGAUCGCUAGCAGCUUCGAGAUCGGGAACCUGGCGCUCAUCCUCUUCGUGAGCUACUUCGGGGCACGCCAACAGAGGAUUGAGCAUCA"}, "B6": {"name": "chr20:63933867:63933968:+|3pUTR|ENSG00000101152|msi1|total|mutant (ssRNA)", "RNA": "GGGAGUUCUACAGUCCGACGAUCAUCAGAGUGGGCCCCUUGCCAGGUGGCUUUUCAGUUACAGAGUCCAGUGGACCAUUUUGCCGAACCAUGCAGCUCCCUGCGGAAGGUGGGGCCGGGUGGGAAAGAGGAGCAGGUCUGGAGCAACAGAGGAUUGAGCAUCA"}, "B7": {"name": "chr3:186538440:186538695:-|three_prime_utr|ENSG00000213139|control|control|control (ssRNA)", "RNA": "GGGAGUUCUACAGUCCGACGAUCACAUGAAUGGGGCCAUAUUCUUCCUGGGGCCCAAAUGCUGGCUGGCCUUGUGGUCCAAAUAGGCAUCAUCAAUAAAACAGUUGGCAUGCAUCCCACUGCUGACUAUAAUGCCUCUCCUUACAACAGAGGAUUGAGCAUCA"}, "B8": {"name": "chr12:50748518:50748596:+|3pUTR|ENSG00000066084|msi1_unk|FALSE|overlapping (ssRNA)", "RNA": "GGGAGUUCUACAGUCCGACGAUCUCAAAUUCAAACUACAGUACUGUGUAAUUAUGUAUAAAGUUUUUUUAUUUAUUUGAAGUUAGACUAGAUAUACGUUUUUAAAUUUAACAUCUGGCUGGACAGUGUUCUAUUAACUCAUUGCAACAGAGGAUUGAGCAUCA"}, "B9": {"name": "ENSG00000136451:be:win_2801|3pUTR|ENSG00000136451|bound_else_gene|NA|bound_elsewhere_windowed (ssRNA)", "RNA": "GGGAGUUCUACAGUCCGACGAUCAGCAAUGAUUAUGCACGUUGAGACAUGUGCUUUUUAUUUCUUAGCAAGAUAUUUUAUCUCUGUACAUAAAGUAGAAACCAAAAGCUAGGGAAACAGAUACUCUUUACACCAUCAUGCCACCAACAGAGGAUUGAGCAUCA"}, "B10": {"name": "ENSG00000168297:stop:overlap|stop_codon|ENSG00000168297|stop_codon|NA|stop_codon (ssRNA)", "RNA": "GGGAGUUCUACAGUCCGACGAUCCUGGGGCCAGCUCACCUCUCACGUCCCCGUCAUCGCCAACUCCACCCUCUACAUCAGGUUAGUGAUGGAGUAAAGUGACAUGCCACCUUCCUGUCCGCCAACAGGAGGAGCGGGCUGUGCCAACAGAGGAUUGAGCAUCA"}, "B11": {"name": "ENSG00000136451:be:win_3151|3pUTR|ENSG00000136451|bound_else_gene|NA|bound_elsewhere_windowed (ssRNA)", "RNA": "GGGAGUUCUACAGUCCGACGAUCUGAGACAGACUUCCUACAUCAGGGACAGGUAUCUGUGUGUCAUUAUACAAAACAGUUCUAGGGGGUUGAACUACAUAGUAAAAAAAUAAAAUAAAUAGUACUUAGUGUAAAAUAAUUUUACAACAGAGGAUUGAGCAUCA"}, "B12": {"name": "chr9:116699486:116699595:+|CDS|ENSG00000119401|unk|total|mutant (ssRNA)", "RNA": "GGGAGUUCUACAGUCCGACGAUCUUCCGCUGCAUUGCUGGCAUGUGUGUGGAUGCUCGUGGUGAUCUCAUCGUGGCUGACAGCCGUCGCAAGGAAAUUCUCCAUUUUCCUAAGGGUGGGGGCUACCGUGUCCUUAUUCGAGAGCAACAGAGGAUUGAGCAUCA"}, "B13": {"name": "chr3:25596636:25596694:+|3pUTR|ENSG00000077092|msi1_unk|total|mutant (ssRNA)", "RNA": "GGGAGUUCUACAGUCCGACGAUCUCCCCAGUACCUUCAGUUCCAGGAUUUAAAAUGCAAGAAAAAACAUUUUUACUGCUGCUCCGUUUUUGGACUGAAAAGAUAUUAAAACUCAAGAAGGACCAAGAAGUUUUCAUAUGUAUCCAACAGAGGAUUGAGCAUCA"}, "B14": {"name": "chr3:50258797:50258898:+|3pUTR|ENSG00000114353|msi1|FALSE|unique (ssRNA)", "RNA": "GGGAGUUCUACAGUCCGACGAUCGCACAAGAAGCGUGAGACGCCACCAUUCCUGGAAACCACAGUCCACCUGCUCAUUCUCGUAGCUUUUUAAAAAAAUGAAAGUAAAGGAAAAAAAAAAAACUGCAAAUCUAGAAAACUUUUCAACAGAGGAUUGAGCAUCA"}, "B15": {"name": "chr5:136975339:136975545:-|3pUTR|ENSG00000152377|msi1|FALSE|unique (ssRNA)", "RNA": "GGGAGUUCUACAGUCCGACGAUCAGAGCCCAUCAAAUCCUGAGUGUCAGUUUGUUGUCCCUAUUGUAGAUGAAAUAGUGAUGUAGCAAAAACCUAGUAAAUUCUGAAUGCUUUUCCACGUAGACUUAUCUGGAAUGUGAACACCAACAGAGGAUUGAGCAUCA"}, "B16": {"name": "chr17:67854386:67854487:+|CDS|ENSG00000171634|unk|total|mutant (ssRNA)", "RNA": "GGGAGUUCUACAGUCCGACGAUCAGAGGCAGAGGACUACCCAUAUGGACCAGCCGAGAACAAGAUCAAAGUUCUACAGUUUCCCGUCGAUCAGUUUCUUACAACAAAUAUUGCUCGAGAGGAAUUGAUGUCUGAAGGGGUGAUCAACAGAGGAUUGAGCAUCA"}, "B17": {"name": "ENSG00000136451:be:win_1601|3pUTR|ENSG00000136451|bound_else_gene|NA|bound_elsewhere_windowed (ssRNA)", "RNA": "GGGAGUUCUACAGUCCGACGAUCAAUAUUUACCAGCAACUUAACUUUUAGUUGAUUAAAGCAAAAAGUAAACCAUGAAAUUGGGAGAUUUUAUUACAUUAGUUAAUAAGAGUGUGGUAGCAUUUUUCUCCAAUUUGGCUGGGACAACAGAGGAUUGAGCAUCA"}, "B18": {"name": "chr2:32415436:32415554:+|CDS|ENSG00000115760|unk|total|mutant (ssRNA)", "RNA": "GGGAGUUCUACAGUCCGACGAUCUGGGACUUUGGUUCAGUGCUUGAGGCUGCCAAAGUUUGCAGAGGAGGAGAAUCUUUGUACCGACUCAAUAACUCCUUGUGCUGACGGAAUUCAUUUGUUGGCCGGACUGCGGACAUGCCCCAACAGAGGAUUGAGCAUCA"}, "B19": {"name": "ENSG00000136451:be:win_4351|3pUTR|ENSG00000136451|bound_else_gene|NA|bound_elsewhere_windowed (ssRNA)", "RNA": "GGGAGUUCUACAGUCCGACGAUCCCCCUCCUACGGUGUGCUCCUGAAUGAAGGUUUCUAUGUAAGCAGAUGAUGAUUUUACCUGUCAAUACCAGCACUGUAUUACUAACAUGCAAAAUACUGCAGAUUUAUUUUGAAAAUUAACAACAGAGGAUUGAGCAUCA"}, "B20": {"name": "chr19:12898785:12899385:-|three_prime_utr|ENSG00000161860|control|control|control (ssRNA)", "RNA": "GGGAGUUCUACAGUCCGACGAUCUCAGAAGUACAGACCAACAGAGAUGGUGAAUGCUGACAGCUGCCGGGAGACUCACGCCUUAGUGACAGUCUCCAGGAGAAGACUGUGAGGCCACCAUUUGGGCCACACUGAGAAAUUGUUCAACAGAGGAUUGAGCAUCA"}, "B21": {"name": "chr1:205434884:205440924:-|three_prime_utr|ENSG00000281406|control|control|control (ssRNA)", "RNA": "GGGAGUUCUACAGUCCGACGAUCUGCCUGCUUCUGGCUGGGGCUUGGAGCAGGAAGCCGUGUGUGUAUCUUAAGUCUUGAUUUAGCCAGUGCUCUUCUCAGCCUGACUCUCACCCGAGGGCAUCAGCCUCCUGUGUGCCUCUCCAACAGAGGAUUGAGCAUCA"}, "B22": {"name": "chr1:20111938:20114255:-|three_prime_utr|ENSG00000117215|control|control|control (ssRNA)", "RNA": "GGGAGUUCUACAGUCCGACGAUCACCAGAAGCGACUGCGUUUCUACUGGCGGCCCCACUGCCGGGGGCAGACCCCUGGGUGCUAGAAGCCCACACCCUCUACCCUGUUCCUCAGCAUGGAGCUCUGGCAUCCCCACCUCAGUACAACAGAGGAUUGAGCAUCA"}}, "note": "The list shows a part of the results.", "data": [{"target": "MSI1 full-length (mouse, UniProt Q61474 1-362)", "sequence (Q61474 whole entry)": "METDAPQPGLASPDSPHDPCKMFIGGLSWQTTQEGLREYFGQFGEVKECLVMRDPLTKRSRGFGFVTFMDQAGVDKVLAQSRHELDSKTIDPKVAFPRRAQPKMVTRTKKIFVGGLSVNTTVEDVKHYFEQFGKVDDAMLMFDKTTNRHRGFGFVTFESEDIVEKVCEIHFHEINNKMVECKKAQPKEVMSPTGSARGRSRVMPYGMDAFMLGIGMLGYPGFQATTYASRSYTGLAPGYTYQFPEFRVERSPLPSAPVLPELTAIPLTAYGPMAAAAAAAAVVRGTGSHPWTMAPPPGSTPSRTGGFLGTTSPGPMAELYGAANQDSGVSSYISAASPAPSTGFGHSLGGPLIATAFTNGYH", "assay": "nsRBNS (natural sequence RNA bind-n-seq); RBNS binding buffer (assumed for nsRBNS): 25 mM Tris pH 7.5, 150 mM KCl, 3 mM MgCl2, 0.01% Triton X-100, 500 ug/ml BSA, 20 U/ml SUPERase-In, 4 C; UNK is unkempt and MSI1 is Musashi-1; names of the RNAs are library labels; protein concentration not given here; high values mean tight binding", "units": {"binding signal": "enrichment R"}, "values": [{"binder": "B1", "binding signal": 0.586}, {"binder": "B2", "binding signal": 0.493}, {"binder": "B3", "binding signal": 0.456}, {"binder": "B4", "binding signal": 0.992}, {"binder": "B5", "binding signal": 0.519}, {"binder": "B6", "binding signal": 0.606}, {"binder": "B7", "binding signal": 0.434}, {"binder": "B8", "binding signal": 5.2}, {"binder": "B9", "binding signal": 1.38}, {"binder": "B10", "binding signal": 0.824}, {"binder": "B11", "binding signal": 15.5}, {"binder": "B12", "binding signal": 0.489}, {"binder": "B13", "binding signal": 0.344}, {"binder": "B14", "binding signal": 1.04}, {"binder": "B15", "binding signal": 11.5}, {"binder": "B16", "binding signal": 0.394}, {"binder": "B17", "binding signal": 1.37}, {"binder": "B18", "binding signal": 0.47}, {"binder": "B19", "binding signal": 0.692}, {"binder": "B20", "binding signal": 0.289}, {"binder": "B21", "binding signal": 0.476}, {"binder": "B22", "binding signal": 0.646}]}]}
